This is an account of results in patent publication US10647664B2, “Substituted hydroxamic acid compounds” (Duke University, priority 2013, dated 2020).

Each structure is given as a SMILES string. ≈ marks a conversion by molar mass, not a printed value.

For assay [1], the system named is modified E. coli with the native lpxC gene replaced by that of P. aeruginosa (W3110PA). In words: MIC, E. coli W3110PA. Conditions: Escherichia coli, read-out: MIC E. coli W3110PA, E. coli W3110PA (P. aeruginosa lpxC). As to the method: […] . This PCR product is gel purified and then electroporated into E. coli DY330 cells, which carry λ-red recombinases, using a Bio-Rad Gene Pulser II set to 2.5 kV, 25 μF, and 400Ω. While DY330 cannot survive on the LB/agar plate supplemented with 15 μg/mL of the compound of disclosure, cells wherein E. coli lpxC replaced with P. aeruginosa lpxC can survive on this media. Transformants are therefore selected directly using the compound of disclosure without introducing a closely linked resistance cassette for a different antibiotic marker. Genomic DNA from resistant colonies is isolated, and the region around lpxC amplified with primers 300-up-lpxC (5′-[…] TG-3′) and 300-down-lpxC (5′-[…] A-3′), and sequenced with primers paLpxC-361-5′ (5′-[…] AA-3′) and paLpxC-581-3′ (5′-[…] CA-3′). […]
MICs are determined according to the NCCLS protocol using 96-well plates. […] MIC is determined as the lowest concentration of an antibiotic that prevented color change (yellow to purple).
The antibiotic activities of several exemplary compounds useful in the methods of the disclosure are evaluated by measurements of minimum inhibitory concentrations (MICs) using wild-type E. coli (W3110), P. aeruginosa (PAO1), F. novicida U112 (FNU112), and modified E. coli strains with the native lpxC gene replaced by that of R. leguminosarum (W3110RL) or P. aeruginosa (W3110PA).

The test system of a further assay is E. coli W3110NG. In words: MIC, E. coli W3110NG. As to conditions: Escherichia coli. In kind it is cell-based. How it is done: MICs are determined according to the NCCLS protocol using 96-well plates. Briefly, diluted bacterial cells (10^6 cells/mL) are added into each well of the 96-well plates containing LB medium with 5% DMSO and various concentrations of the compound of disclosure. After incubation of the plates for 22 hours at 37° C., [4,5-dimethylthiazol-2-yl]-2,5-diphenyltetrazolium bromide solution (MTT) is added (final concentration, 0.2 mg/mL) and incubated at 37° C. for another 3 hrs. MIC is determined as the lowest concentration of an antibiotic that prevented color change (yellow to purple).

As for `CC(NC(=O)c1ccc(C#Cc2ccc(CN3CCOCC3)cc2)cc1)(C(=O)NO)C(C)(O)C(F)F` (stereo not drawn) [Example 2, N-(4,4-difluoro-3-hydroxy-1-(hydroxyamino)-2,3-dimethyl-1-oxobutan-2-yl)-4-((4-(morpholinomethyl)phenyl)ethynyl)benzamide], in assay [1], the MIC amounted to 50 µg/mL (≈ 99.7 µM).
For the compound `CC(CCn1ccc(C#Cc2ccccc2)cc1=O)(C(=O)NO)S(C)(=O)=O` (stereo not drawn) [Example 30, N-hydroxy-2-methyl-2-(methylsulfonyl)-4-(2-oxo-4-(phenylethynyl)pyridin-1 (2H)-yl)butanamide], the MIC in the assay on E. coli W3110NG was 2.5 µg/mL (≈ 6.44 µM); in assay [1], under 0.78 µg/mL.

For orientation: MIC means the least concentration at which growth counts as inhibited.
